About 340 (0.77%) of roughly 44,000 compounds were called active. Not shown: some 5% with an inconclusive outcome. The call rests on the fitted dose curve; in most records, active means well fitted inhibition curve with a large enough effect; inconclusive means small, poorly fitted or top-dose-only effect; inactive means flat fitted curve, though single readings scatter. The list shows a part of the results.
assay: Acumen qHTS Assay for Inhibitors of the mTORC1 Signaling Pathway in MEF (Tsc2-/-, p53-/-) Cells: Sytravon; conditions: phospho-rpS6 immunofluorescence/PI, 24 h; series mostly up to 38.3 µM; activity change, negative = inhibition: at the top concentration; further: nearly all actives have a fitted effect of over 50% in size;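 on activity change, negative = inhibition: plate controls were DMSO for no effect and rapamycin for full effect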
Outline: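 Readout is phospho-S6 Alexa 488 signal normalized to PI per well, reported as % active cells with thresholds set from rapamycin (7.5 nM) and DMSO controls. Cells: Tsc2-/-, p53-/- MEFs, 24 hrs compound at 37 C; PI cell number serves as viability.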
Potency means the concentration at half of the fitted maximal effect.

Structure (SMILES) | activity change, negative = inhibition | Potency
Cc1cccc(C)c1NC(=O)Cn1c(=O)n(CCCS(=O)(=O)C2CCCCC2)c(=O)c2ccccc21 | inactive: -0.843% | –
CCCN(C(=O)Cn1ncc2c1-c1ccccc1OC2)c1cccc(C)c1 | inactive: -7% | –
CCOC(=O)C1CCN(c2c(C(=O)c3ccc(OC)cc3)cnc3ccccc23)CC1 | inactive: -2.07% | –
O=C(CSc1nccn1C1CCCC1)Nc1cccc(F)c1 | inactive: -6.9% | –
CSCC[C@@H](C(=O)Nc1cccc(F)c1)N1Cc2ccccc2C1=O | inactive: -13.3% | –
CCOCCc1nn2c(=O)cc(COC(=O)Cc3ccccc3)nc2s1 | inactive: 3.57% | –
CCOC(=O)c1cc2c(=O)n3ccccc3nc2n(Cc2ccco2)c1=NC(=O)c1ccc(C)c(C)c1 | inactive: -14.5% | –
CN(c1ccccc1)S(=O)(=O)c1nnc(NC(=O)COc2ccccc2)s1 | inactive: 3.46% | –
O=C(Cn1c(=O)oc2cc(S(=O)(=O)N3CCCCCC3)ccc21)Nc1ccc(F)cc1F | inactive: -1.25% | –
O=C(Nc1cc2c(cc1C(=O)c1cccc(Br)c1)OCCO2)c1ccccc1F | inactive: -29.1% | –
Cc1ccc(-n2c(=O)c3ccc(C(=O)NCc4ccco4)cc3n(CC(=O)Nc3ccccc3C(F)(F)F)c2=O)cc1 | inactive: -0.793% | –
CN(C(=O)Cn1cnc2onc(-c3ccc(F)cc3)c2c1=O)c1ccccc1Cl | inactive: 2.3% | –
Cc1cc(C)cc(-n2c(C)cc(C(=O)C(=O)Nc3nnc(C)s3)c2C)c1 | inactive: 1.62% | –
CCOc1ccccc1CNC(=O)c1ccc(NC(=O)N2CC(C)Sc3ccccc32)cc1 (centres undefined) | inactive: 1.59% | –
O=C(NC1(C(F)(F)F)C(=O)Nc2c1c(=O)[nH]c(=O)n2-c1ccccc1)c1ccccc1 (centres undefined) | inactive: -5.02% | –
CCCN(CCC)C(=O)Cn1c(SCc2cccc(C(F)(F)F)c2)nc2cccnc21 | inactive: 1.2% | –
CCOc1ccc(C(=O)NCc2nc3cccnc3n2Cc2cccc(OC)c2)cc1 | inactive: -11% | –
N#Cc1ccccc1NC(=O)C(=O)NCCc1csc2nc(-c3cccc(F)c3)nn12 | inactive: 1.78% | –
COc1ccc(OC)c(CNC(=O)CN(c2ccc(C)cc2)S(=O)(=O)N(C)C)c1 | inactive: -3.94% | –
Cc1cccc(NC(=O)N2CCN(C)c3ncccc32)c1C | inactive: 2.55% | –
Cc1cccc(OCCSc2nc3ccccc3n2CC(=O)N2CCOCC2)c1C | inactive: 0.311% | –
O=S(=O)(Nc1cccc(-c2ccc(N3CCCC3)nn2)c1)c1cc(F)ccc1F | inactive: -1.06% | –
CCOc1ccc(S(=O)(=O)Nc2ccc(OC)c(Cl)c2)c2cccnc12 | inactive: -9.46% | –
Cc1ccc(NC(=O)C2CCCN(S(=O)(=O)c3c(C)nn(C)c3C)C2)c(C)c1 (centres undefined) | inactive: 3.4% | –

Structure (SMILES) | activity change, negative = inhibition | Potency
CCOc1ccc(C2C(C(N)=O)=C(C)Nc3nc(-c4cccc(Cl)c4)nn32)cc1OC (centres undefined) | inactive: -0.249% | –
CCN1C(=O)c2ccccc2S(=O)c2ccc(C(=O)NCc3ccccc3OC)cc21 (centres undefined) | inactive: -6.96% | –
O=C(O)c1c2c(nc3ccc(S(=O)(=O)N4CCC(C(=O)NCc5ccc(Cl)cc5)CC4)cc13)CCCC2 | inactive: -5.49% | –
COc1cccc(CNC(=O)Cn2c(SCC(=O)Nc3ccc(C)c(C)c3)nc3ccccc32)c1 | inactive: 9.08% | –
CSc1ccc(NC(=O)Cn2nnnc2-c2ccccc2F)cc1 | inactive: -1.58% | –
COc1ccc(S(=O)(=O)NCC(c2ccco2)N2CCN(c3ccccc3F)CC2)cc1C (centres undefined) | inactive: 0.264% | –
COc1cc(/C=C/c2nc3cc(Cl)ccc3c(=O)n2-c2ccc(C)cc2C)cc(OC)c1OC | inactive: 11.4% | –
CCOC(=O)c1c(C)oc2nc(C)nc(N3CCN(c4cccc(C)c4C)CC3)c12 | inactive: -9.95% | –
COc1ccc(Nc2ncnc3c2nc2n3CCCC2)cc1Cl | inactive: -8.49% | –
COc1nnc(-c2ccc(N3CCCCC3)c(NC(=O)c3ccccc3)c2)c2ccccc12 | inactive: -2.05% | –
O=C(NCC(c1cccnc1)N1CCc2ccccc21)C(=O)Nc1ccccc1F (centres undefined) | inactive: -3.27% | –
CCc1cccc(NC(=O)c2cccc3c2C(=O)N(C2CCCCC2)C3)c1 | inactive: -0.676% | –
CC(NC(=O)c1cc(-c2ccc(Cl)cc2)on1)c1ccccc1 (centres undefined) | inactive: -13.3% | –
CCOC(=O)c1c(C)n(S(=O)(=O)c2ccc(C)cc2)c2ccc(NS(=O)(=O)c3ccc(C)cc3)cc12 | inactive: 0.127% | –
CCOC(=O)c1nnn(CC(=O)NC(=O)Nc2ccc(F)cc2)c1C(=O)OCC | inactive: -9.03% | –
COc1ccc(CNC(=O)c2ccc3c(c2)N(Cc2ccccc2)CCS3)cc1 | inactive: -11.1% | –
Cc1ccccc1Nc1nnc(-c2ccc(C)c(S(=O)(=O)N3CCCCC3)c2)c2ccccc12 | inactive: 1.89% | –
Cc1ccccc1C(=O)Nc1ccc2oc(-c3ccc(Cl)c(Cl)c3)nc2c1 | inactive: 1.38% | –
CC(C)Oc1ccc(C(=O)Nc2nc3c(s2)CC(C(C)(C)C)CC3)cc1 (centres undefined) | inactive: 2.31% | –
CC1Cn2cc(C(=O)Nc3ccccc3C(F)(F)F)c(=O)c3c(Cl)ccc(c32)O1 (centres undefined) | inactive: -3.83% | –
O=C(NCC(c1ccc2c(c1)OCO2)N1CCN(c2ccccc2)CC1)c1ccccc1 (centres undefined) | inactive: -4.1% | –
Cc1oc2ncn(CC(C)C)c(=O)c2c1C(=O)N(Cc1ccccc1)C(C)C | inactive: 5.63% | –
Cc1nc2nc(C(F)(F)F)[nH]n2c(=O)c1Cc1ccccc1 | inactive: 3.24% | –
COc1cc(OC)c(NC(=O)c2cn(C)c(=O)c3cc(OC)c(OC)cc23)cc1Cl | inactive: -9.75% | –

Structure (SMILES) | activity change, negative = inhibition | Potency
O=C(/C=C/c1ccccc1)N1CCN(Cc2cc(=O)n3nc(-c4ccccc4Cl)sc3n2)CC1 | inactive: 14.8% | –
Cc1ccc(Cn2c(C)c3cnn(CC(=O)N4CCN(c5ccc(F)cc5)CC4)c(=O)c3c2C)cc1 | inactive: 1.38% | –
O=C(CN1C(=O)C2(SCC(=O)N2c2ccc(Cl)cc2)c2ccccc21)NCCc1ccccc1 (centres undefined) | inactive: -4.57% | –
COc1ccc(Cl)cc1NS(=O)(=O)c1c(C)[nH]c(=O)[nH]c1=O | inactive: -10.1% | –
CCOc1ccccc1NC(=O)c1c(NC(=O)c2ccncc2)sc2c1CCC(C(C)(C)C)C2 (centres undefined) | inactive: 3.27% | –
Cc1ccc(O)c(NC(=O)CCSc2nc(-c3ccco3)cc(C(F)(F)F)n2)c1 | inactive: 5.19% | –
COc1ccc(Cl)cc1NC(=O)c1c(NCc2cccs2)sc2c1CCCC2 | inactive: -18% | –
Oc1ccc(NCc2ccccc2OCc2ccccc2Cl)cc1 | inactive: -27.9% | –
CN(C)c1ccc(NC(=O)CSC2=Nc3ccccc3C3=NC(CC(=O)NCc4ccc5c(c4)OCO5)C(=O)N23)cc1 (centres undefined) | inactive: 0.251% | –
Cc1ccc(S(=O)(=O)Nc2c(C)nc3nc(C)[nH]n3c2=O)c(C)c1 | inactive: -8.79% | –
COc1ccc(C(=O)NCc2nnc(SCC(=O)Nc3ccc(F)cc3)n2-c2ccccc2)cc1 | inactive: 0.806% | –
COC(=O)c1ccc(NC(=O)CSc2nc3c(c(=O)n(C)c(=O)n3C)n2Cc2ccccc2)cc1 | inactive: -11.7% | –
CC(C)C(=O)c1cc2c(cc1NC(=O)c1ccccc1F)OCCO2 | inactive: -0.771% | –
Cc1ccc(COc2cccc3cc(-c4noc(-c5ccc(C)cc5)n4)c(=O)oc23)cc1 | inactive: 6.48% | –
Cc1ccc(C(=O)c2oc3ccccc3c2NC(=O)COc2ccc(C(C)(C)C)cc2)cc1 | inactive: -2.63% | –
CC(=O)N1CCc2cc(S(=O)(=O)CCC(=O)N3CCN(c4ccccc4F)CC3)ccc21 | inactive: -0.403% | –
Cc1cc(Nc2ccc(Cl)cc2)n2cnnc2n1 | inactive: -0.187% | –
COc1ccccc1Cc1nc2ccccc2nc1SCC(=O)N1CCCc2ccccc21 | inactive: -22.1% | –
Cc1ccccc1-c1noc(-c2cc(C(C)C)[nH]n2)n1 | inactive: 2.02% | –
CCOc1ccccc1N1CC(c2nc3ccccc3n2CCOc2ccccc2OC)CC1=O (centres undefined) | inactive: 0.494% | –
COc1ccc(-c2nnc(SCC(=O)c3ccc([N+](=O)[O-])cc3)o2)cc1OC | inactive: 0.514% | –
Cn1nc(-c2ccc(C(=O)Nc3ccc(OC(F)(F)F)cc3)cc2)c2ccccc2c1=O | inactive: 2.15% | –
O=C(NCc1ccccc1Cl)C(=O)NCC(c1cccs1)S(=O)(=O)c1ccccc1 (centres undefined) | inactive: -6.42% | –
N#C/C(=C\c1ccc(-c2ccc(Cl)c(C(=O)O)c2)o1)c1nc2ccccc2[nH]1 | inactive: 4.21% | –

Structure (SMILES) | activity change, negative = inhibition | Potency
Cc1cccn2c(=O)c3cc(C(=O)NC(C)c4ccccc4)c(=N)n(CCOCCO)c3nc12 (centres undefined) | inactive: 0.827% | –
CC(C)c1ccc(-c2noc(SCC(=O)N(C)c3ccc(F)cc3)n2)cc1 | inactive: -9.49% | –
CCOC(=O)c1cc(OC(=O)c2cccc(F)c2)n(-c2ccccc2)n1 | inactive: 12.1% | –
CC(=O)N1CCCc2ccc(NC(=O)c3ccc(C(F)(F)F)cc3)cc21 | inactive: 0.978% | –
CCOc1ccc(N(C(=O)c2ccc(OC)cc2)S(=O)(=O)c2ccc3c(c2)n(C)c(=O)n3C)cc1 | inactive: 1.09% | –
CC(C)c1ccc(NC(=O)CN2C=NS(=O)(=O)c3ccccc32)cc1 | inactive: -0.833% | –
CCC(=O)OC1=CN(Cc2ccccc2)S(=O)(=O)c2ccccc21 | inactive: -1.57% | –
CCC(=O)C1=C(c2ccc(F)cc2)N(C(=O)CC)n2c(nnc2C2CCCCC2)S1 | inactive: 0.283% | –
CCN(CC)S(=O)(=O)c1ccc2c(c1)N(CC(=O)Nc1c(C)cc(C)cc1C)C(=O)CS2 | inactive: 3.47% | –
Cc1cc(C)cc(NC(=O)CSc2nnc(CNC(=O)c3c(F)cccc3Cl)o2)c1 | inactive: -0.717% | –
COC(=O)c1cc2oc(C)cc2n1Cc1ccc(C)cc1 | inactive: 8.2% | –
Cc1cccc(N2CCN(C(=O)CN3C(=O)COc4ccc(S(=O)(=O)N5CCCC5)cc43)CC2)c1C | inactive: 1.12% | –
N#C/C(=C\c1c(Oc2ccc(F)cc2)nc2ccccn2c1=O)c1nc2ccccc2s1 | inactive: 1.16% | –
CCCOc1ccc(C(=O)Nc2sc3c(c2C(=O)OCC)CCCCC3)cc1 | inactive: -9.97% | –
O=C1CC(c2ccc(F)cc2)c2c(n3c(nc4ccccc43)[nH]c2=O)N1 (centres undefined) | inactive: -7.49% | –
CCc1ccc(CNC(=O)C2CCN(C(=O)c3ccc(-n4ccc5ccccc54)s3)CC2)cc1 | inactive: 11.9% | –
Cc1ccccc1CS(=O)(=O)c1ncc(Cl)c(C(=O)Nc2nnc(C(C)C)s2)n1 | – | active: 9.27 µM
Cc1oc(-c2cccc(Br)c2)nc1CSc1nc2ncccc2[nH]1 | inactive: -1.13% | –
COc1cc2ccccc2cc1C(=O)Nc1cccc(-c2nc3ccccc3o2)c1 | inactive: 0.165% | –
COc1ccc(N2CCN(C(=O)c3cn(C)c4ccc(S(=O)(=O)N(C)C5CCCCC5)cc4c3=O)CC2)cc1 | inactive: 0.25% | –
COc1ccc(CNC(=O)C2CCN(S(=O)(=O)c3c(C)noc3/C=C/c3cccs3)CC2)cc1 | inactive: -5.71% | –
Cc1ccc(NC(=O)c2c(C(=O)Nc3ccccc3)sc3nc(C)cc(=O)n23)cc1 | inactive: 0.856% | –

— PubChem BioAssay AID493208 (National Center for Advancing Translational Sciences (NCATS), 2011)
